Source: ChEMBL document CHEMBL3259627, “Allosteric inhibition of human factor XIa: discovery of monosulfated benzofurans as a class of promising inhibitors” (J Med Chem, 2014)

Key:
[1] = tested on: CCOC(=O)c1c(C)oc2cc(OC)c(OCc3oc4cc(OC)c(OCc5oc6cc(OCC)c(OS(=O)(=O)O)cc6c5C(=O)OCC)cc4c3C(=O)OCC)cc12; conditions: Homo sapiens; 150 nM
[2] = tested on: CCOC(=O)c1c(C)oc2cc(OC)c(OCc3oc4cc(OC)c(OCc5oc6cc(OCC)c(OS(=O)(=O)O)cc6c5C(=O)OCC)cc4c3C(=O)OCC)cc12; conditions: Homo sapiens; 300 nM
[3] = tested on: CCOC(=O)c1c(C)oc2cc(OC)c(OCc3oc4cc(OC)c(OCc5oc6cc(OCC)c(OS(=O)(=O)O)cc6c5C(=O)OCC)cc4c3C(=O)OCC)cc12; conditions: Homo sapiens; 550 nM
[4] = tested on: CCOC(=O)c1c(C)oc2cc(OC)c(OCc3oc4cc(OCC)c(OS(=O)(=O)O)cc4c3C(=O)OCC)cc12; conditions: Homo sapiens; 7.25 uM
[5] = tested on: CCOC(=O)c1c(C)oc2cc(OC)c(OCc3oc4cc(OCC)c(OS(=O)(=O)O)cc4c3C(=O)OCC)cc12; conditions: Homo sapiens; 5 uM
[6] = tested on: CCOC(=O)c1c(C)oc2cc(OC)c(OCc3oc4cc(OCC)c(OS(=O)(=O)O)cc4c3C(=O)OCC)cc12; conditions: Homo sapiens; 10 uM
[7] = tested on: CCOC(=O)c1c(C)oc2cc(OC)c(OCc3oc4cc(OC)c(OCc5oc6cc(OCC)c(OS(=O)(=O)O)cc6c5C(=O)OCC)cc4c3C(=O)OCC)cc12; conditions: Homo sapiens; 900 nM

“Coagulation factor XI (Homo sapiens) (sequence not shown)” showed a Km [1] of 380 µM, a Vmax [1] of 57.1 mAU/min and a Km [2] of 350 µM. For the same substance, the Vmax [2] was 48.7 mAU/min, the Km [3] was 290 µM and the Vmax [3] was 34.9 mAU/min. It also gave a Km [4] of 250 µM, a Vmax [4] of 30.7 mAU/min and a Km [5] of 230 µM. It also gave a Vmax [5] of 37.4 mAU/min, a Km [6] of 310 µM and a Vmax [6] of 20.3 mAU/min. The Km [7] was 280 µM and the Vmax [7] was 9.8 mAU/min.
